From PubChem BioAssay AID1346428 (National Center for Advancing Translational Sciences (NCATS), 2018)
Screen size: about 48,000 compounds; about 1,200 (2.5%) were called active. Inconclusive results (about 2%) are left out.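 How the source made its calls: active means activation of at least 60% and not above a set upper limit (about 1 call in 100 departs from these limits); inconclusive means activation of 40% to 60%, or above that upper limit; inactive means activation under 40%.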 The list shows a part of the results.

molecular target: Probable G-protein coupled receptor 32 (Homo sapiens) (UniProt O75388); assay: qHTS for Agonists of Human Resolvin D1 Receptor DRV1; conditions: CHO-K1 GPR32 beta-arrestin PathHunter luminescence, 90 min; at 76.9 µM; hits give high values; zero percent set by DMSO-only wells; further: 0% is about no effect
In short: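 Luminescent readout of beta-Gal complementation quantifies ligand-induced beta-arrestin association with GPR32 in CHO-K1 cells; 90 min compound incubation at 37 °C, detection 1 h at room temperature.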

Sequence of UniProt O75388 (O75388 whole entry, looked up): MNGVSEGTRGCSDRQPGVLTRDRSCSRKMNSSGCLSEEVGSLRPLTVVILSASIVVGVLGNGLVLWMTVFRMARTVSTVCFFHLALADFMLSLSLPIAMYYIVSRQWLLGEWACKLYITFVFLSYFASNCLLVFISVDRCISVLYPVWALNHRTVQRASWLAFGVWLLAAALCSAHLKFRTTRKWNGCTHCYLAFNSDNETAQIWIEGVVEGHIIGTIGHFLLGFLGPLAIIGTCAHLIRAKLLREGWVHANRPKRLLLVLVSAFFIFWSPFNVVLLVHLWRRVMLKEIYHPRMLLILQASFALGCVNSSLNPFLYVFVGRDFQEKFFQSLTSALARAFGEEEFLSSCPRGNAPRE

activation, inactive:
COCCCNC(=O)Cn1c(=O)n(CCCC(=O)NCc2ccc(C)cc2)c(=O)c2ccccc21 14.2%
CCOc1ccc(Sc2cc(C(=O)NCCc3ccc(OC)c(OC)c3)c3ccccc3n2)cc1 -7.79%
Cc1cccc(C(=O)Nc2ccccc2-c2nc(-c3ccccc3)no2)c1 -4.27%
CC(=O)c1c(C)oc2ccc(N(C(=O)Oc3ccccc3)S(=O)(=O)c3ccc(Br)cc3)cc12 -14.1%
CC(C)CN(c1ccccc1)S(=O)(=O)c1nnc(NC(=O)c2ccco2)s1 -3.16%
CCn1cc(C(=O)N2CCN(c3ccccc3OC)CC2)c(=O)c2cc(S(=O)(=O)N3CCCCC3)ccc21 -0.535%
COc1ccc(-c2nn(-c3ccccc3)cc2C(=O)Nc2ccccc2OC)cc1 -4.32%
COc1cc(OC)c(NC(=O)c2oc3ccc4c(c3c2C)C(=O)CC(C)(C)O4)cc1Cl -9.02%
CCOc1ccccc1NC(=O)Cn1c(=O)n(Cc2ccc(C(=O)NCCCOC)cc2)c(=O)c2ccccc21 1.42%
Cn1cc(C(=O)NCc2ccc(F)cc2)c(=O)c2cc(S(=O)(=O)N3CCCCC3)ccc21 -0.544%
O=C(CCSCc1ccccc1F)N1CCN(c2ccc(F)cc2)CC1 -26.3%
COc1ccc(NC(=O)N2CCc3c(sc4c3CCCC4)C2c2ccc(F)cc2)cc1 (stereo not drawn) -6.63%
CC(C)c1ccc(Nc2nc3ccc(C(=O)c4ccccc4)cc3n3cnnc23)cc1 -18.9%
CCn1c(=O)c2cc(C(=O)N(C)c3cc(C)ccc3C)sc2c2ccccc21 10.5%
O=C(O)c1cccc(NC(=O)c2cccc(S(=O)(=O)Nc3cccc(C(=O)O)c3)c2)c1 -20.5%
CCc1ccc(CNC(=O)c2cc3c(=O)oc4ccc(C)cc4c3s2)cc1 0.631%
Cc1ccc(NC(=O)Nc2nnc(N3CCCCC3)s2)c(C)c1 7.81%
CCN(C(=O)c1sc2nc3n(c(=O)c2c1C)CCCCC3)c1ccccc1F -5.33%
COc1cc(OC)cc(-n2c(=O)[nH]c3cc(C(=O)NCCc4ccc(C)cc4)ccc3c2=O)c1 42.6%
CN(C)C(=O)c1ccc(S(=O)(=O)NCc2ccccc2Cl)s1 -1.75%
COc1ccc(NC(=O)c2ccc3snnc3c2)cc1OC 0.345%
O=C(COC(=O)c1cc(-c2cccs2)nc2ccccc12)c1ccc(Cl)cc1 -6.07%
COc1cc(C(=O)NCCSc2c(C)[nH]c3ccccc23)cc(OC)c1OC -3.16%
CCOc1ccc(NC(=O)CSc2nc3ccccc3c(=O)n2CCC(=O)NC2CCCCC2)cc1 26%
COc1ccc(NC(=O)CN(C)S(=O)(=O)c2cnc[nH]2)cc1 2.33%
CCOc1ccc(Nc2oc(/C=C/c3cc(OC)c(OC)c(OC)c3)nc2C#N)cc1 4.56%
O=C(NC1CC(=O)N(c2ccc(Cl)cc2)C1)C1CCCCC1 (stereo not drawn) -11.3%
COc1cccc(NS(=O)(=O)c2cc(-c3cnc(C4CC4)o3)ccc2C)c1 -18.2%
COc1ccc(-c2noc(C3CC(=O)N(c4ccc5c(c4)OCCO5)C3)n2)c(OC)c1 (stereo not drawn) -5.1%
COC(=O)c1c(NC(=O)/C(C#N)=C/c2ccc(OC)cc2)sc2c1C(C(=O)OC)CC2 (stereo not drawn) -3.78%
CCc1ccccc1NC(=O)[C@H](Cc1ccccc1)N1Cc2ccccc2C1=O -4.86%
O=C(O)CSc1nc2ccccc2nc1N1CCCCC1 27%
COc1ccc(CCNC(=O)CSc2cn(CCNC(=O)c3ccc(OC)c(OC)c3)c3ccccc23)cc1OC 7.1%
Cc1cccc(C)c1NC(=O)CSc1nccn1C -8.81%
Cc1ccc(C)c(CN2C(=O)c3ccccc3S(=O)(=O)c3ccc(C(=O)N4CCN(Cc5ccccc5)CC4)cc32)c1 -19.8%
CCOc1ccc(CNC(=O)c2cccc(Nc3nc4ccccc4n4nnnc34)c2)cc1OC -8.12%
CC(C)Cn1c(SCc2cccc(F)c2)nc2ccsc2c1=O -20.3%
CCOc1ccc(NC(=O)c2oc3ccccc3c2NC(=O)C(C)Oc2ccccc2)cc1 (stereo not drawn) -2.17%
Cc1ccc2c(=O)cc(C(=O)Nc3ccc(S(=O)(=O)N4CCCC(C)C4)cc3)oc2c1C (stereo not drawn) 22.1%
CC(=O)c1cc2c(cc1N/C(=N/S(=O)(=O)c1ccc(C)cc1)c1ccc(Cl)cc1)OCO2 -18.7%
O=C(CCn1c(=O)c2cccn2c2cccnc21)NCc1cccc(Br)c1 -8.31%
COc1ccc(Cc2nc3ccc(C(=O)NCCc4ccc(Cl)cc4)cc3o2)cc1 40.8%
CCN(C(=O)CCS(=O)(=O)c1cc(Br)cc2c1N(C(=O)C1CC1)CC2)c1cccc(C)c1 -8.03%
CC1Cc2cc(S(=O)(=O)CCC(=O)Nc3ccc(OC(F)(F)F)cc3)ccc2N1C(=O)C1CC1 (stereo not drawn) 11.7%
COc1ccc(-c2cn3c(n2)sc2cc(C(=O)NCc4ccccc4)ccc23)cc1 -4.51%
COc1ccc(OC)c(C2CC(=O)Nc3ccc4ccccc4c32)c1 (stereo not drawn) 26.3%
CCOc1ccccc1N1CC(c2nc3ccccc3n2CCCCOc2ccccc2)CC1=O (stereo not drawn) 3.82%
CC(NC(=O)c1c(O)nc2ccccn2c1=O)c1ccccc1 (stereo not drawn) -22.6%
S=c1[nH]c2ccccc2s1 -110%
COc1ccccc1C1=Nn2c(nc3sc(C(=O)Nc4ccccc4Cl)c(C)c3c2=O)SC1 -9.97%
Cc1ccc(C)c(C(=O)N2CCC(c3nc4c(nnn4Cc4ccccc4)c(=O)[nH]3)CC2)c1 -0.122%
CCOCCCn1c(SCC(=O)Nc2ccccc2OC)nc2c(oc3ccccc32)c1=O -2.99%
COc1ccc(C2c3cc(OC)c(OC)cc3CC(=O)N2c2cccc(C#N)c2)cc1 (stereo not drawn) -14.2%
O=C(CC1N=C2c3ccccc3N=C(SCc3ccccc3Cl)N2C1=O)NC1CCCCC1 (stereo not drawn) -20.3%
COc1ccc(Cl)cc1-n1c(CCC(=O)O)ccc1-c1ccc(C)cc1 -3.31%
Cc1cc(=O)[nH]c(SCC(=O)N2CCN(c3ccccc3)CC2)n1 -7.31%
COc1ccc(-c2nc3ccc(C(=O)NCc4ccc(C)cc4)cc3nc2-c2ccc(OC)cc2)cc1 -5.32%
COc1ccc(NC(=O)c2oc3ccccc3c2NC(=O)Cc2ccc(F)cc2)c(OC)c1 -25.8%
CC1CCN(S(=O)(=O)c2ccc3c(c2)N(CC(=O)Nc2ccc(F)c(Cl)c2)C(=O)CO3)CC1 -20.6%
Cc1nn(CC(=O)N2CCN(c3ccccc3)CC2)c(=O)c2cc3sccc3n12 -4.32%
COc1ccc(Br)cc1CNC(=O)CCSCc1ccc(Cl)cc1 -28.1%
CCC(=O)N1CCc2cc(CNS(=O)(=O)c3cc(Cl)ccc3OC)ccc21 -14.4%
Cc1ccc(OCCn2c(COc3ccc(Cl)cc3)nc3ccccc32)cc1 9.18%
CCN1CCN(c2cc(C)c3cc(NC(=O)c4cc(OC)cc(OC)c4)ccc3n2)CC1 -21.2%
Cc1cccc(N2CCN(S(=O)(=O)c3c(C)nc4scc(C)n4c3=O)CC2C)c1 (stereo not drawn) 8.12%
Cc1ccc(CCNC(=O)CN2N=C(c3ccc(C)cc3)CCC2=O)cc1 -26.9%
CCc1ccccc1NC(=O)Cn1c(=O)ccc2cc(S(=O)(=O)N3CCC(C)CC3)ccc21 -14.4%
Cc1c(C(=O)Nc2cccc(Cl)c2)oc2ccc(S(=O)(=O)N3CCOCC3)cc12 13.1%
CCC(C)NC(=O)Cn1cnc2sc(C)c(S(=O)(=O)N3CCN(c4ccccc4OC)CC3)c2c1=O (stereo not drawn) -3.21%
COc1cccc(NC(=O)N2CCC(CN3CCOCC3)CC2)c1 6.56%
COc1ccc(N2C(=O)CCSC23C(=O)N(Cc2ccc(F)cc2)c2ccccc23)cc1Cl (stereo not drawn) -24.7%
CC1CCN(C(=O)c2ccc(NC(=O)c3nsc4ccccc34)cc2)CC1 -12.5%
CCOC(=O)c1sc(NC(=O)c2nc3nc(C)cc(C(F)F)n3n2)c(C(=O)OC)c1C 7.99%
CCOc1cccc(C2c3c(oc4cc(C)c(C)cc4c3=O)C(=O)N2c2nc(C)c(C)s2)c1 (stereo not drawn) 9.28%
COc1cccc(-c2cc(C(=O)Nc3cccnc3Cl)no2)c1 13.4%
Cc1ccc(NC(=O)CN2C(=O)C(C)(C)c3cc(S(=O)(=O)N4CCCCC4)ccc32)c(Br)c1 -4.95%
Cn1nc(C(=O)Nc2ccccc2C#N)c2c1-c1ccccc1SC2 -2.26%
COc1cccc(CNC(=O)CCS(=O)(=O)c2cc3c(cc2C)NC(=O)CO3)c1 -4.34%
CCc1ccc(-n2c(=O)c3c(C)c(C(=O)N(C)C)sc3n(Cc3cccc(C)c3)c2=O)cc1 -10.1%
CCOc1ccc(CNC(=O)CCn2nc(C)c3c(C)n(-c4ccccc4)nc3c2=O)cc1 -15.6%
Cc1ccc(C)c(N2CCN(C(=O)CCCn3ncn4c(cc5occc54)c3=O)CC2)c1 -29.6%
COc1ccc(C(=O)Nc2ccc(-c3cc4ccccc4oc3=O)c(C)c2)cc1Br -6.52%
CCN(CCCNC(=O)c1nn(-c2ccc(C)cc2)c(=O)c2c1c1ccccc1n2C)c1ccccc1 9.46%
